# Data as given in the RNAGym collection of RNA variant scans (doi:10.1073/pnas.2313332121).
# This sample is rich in variants without activity.
# B1: TPR 5TU (parent)
# chain: GGAUCUUCUCGAUCUAACAAAAAAGACAAAUCUGCCACAAAGCUUGAGAGCAUCUUCGGAUGCAGAGGCGGCAGCCUUCGGUGGCGCGAUAGCGCCAACGUUCUCAACUAUGACACGCAAAACGCGUGCUCCGUUGAAUGGAGUUUAUCAUG
# Variants of: B1
# Assay: polymerase ribozyme fitness, log enrichment relative to wild type (log ratio); higher = more active; in vitro selection for triplet polymerase activity
# Outline: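 Fitness is a logarithmic measure of how a genotype enriched relative to the wild type, with replicate averages weighted by inverse variance. The logarithm uses base 2, and enrichment came from Illumina sequencing of input and output libraries. Those libraries were PCR-built, transcribed mutants of each subunit of a heterodimeric triplet polymerase ribozyme, passed through one triplicate in vitro selection round that included frozen incubation at −7 °C, gel excision of extended constructs and streptavidin-bead capture. Genotypes were kept only if they had ≥10 input reads and ≥1 read per output.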
row,Variant,polymerase ribozyme fitness (log ratio)
1,A60G U102G A150G,≤ -4.2
2,U61A U78G C95U A107C U148G A150U,≤ -4.2
3,G59U G88U A121U U127A U134G,≤ -4.2
4,A60G C72U C87G A107G A119G,≤ -4.2
5,U61G G94A A106C C116A G133C U146A,≤ -4.2
6,A60G C93U U104G U111G C114U,≤ -4.2
7,U61A G80A,-2.08
8,U61A G86U,-2.99
9,G59C G92U C105A C125A C149U,≤ -4.2
10,A60G C79G,-3.75
11,G62C C69U G92A G128A,≤ -4.2
12,U61G C79U C99U G126A,≤ -4.2
13,A60C C96G C99U,≤ -4.2
14,U61A G62U A89C G92A A107C A110G,≤ -4.2
15,U61A G65A G81U C85U U102G,≤ -4.2
16,A60G C95U C96A,-1.03
17,G59U C72A C75A C87U C93G,≤ -4.2
18,A60U G86U C108U,≤ -4.2
19,U61A A73C U77A C87A,≤ -4.2
20,A60C C96U A142C G143A,≤ -4.2
21,G59U C87G C95U U101G C149G,≤ -4.2
22,U61A U90C C96A A115U G152U,≤ -4.2
23,U61G A91C C93U C114A G126A U135G,≤ -4.2
24,G62A G84A C96U A115G,≤ -4.2

row,Variant,polymerase ribozyme fitness (log ratio)
1,U61G U82G A107C A121C,≤ -4.2
2,U61A G68C G84A G88U A121G G124A G141U U148C,≤ -4.2
3,U61A G65A G67C G84U C96G G141U,≤ -4.2
4,A60G G74A C85U C149U,≤ -4.2
5,A60U C76G G94A C149G,≤ -4.2
6,U61G U78A C79A C87G U127G G136A,≤ -4.2
7,G59C G92C A107G A115G,≤ -4.2
8,U61A C105G,≤ -4.2
9,A60U U61A G86A C93A A110C G133A,≤ -4.2
10,U61C U111A A113U A121U U144A,≤ -4.2
11,A60C G81C C87A,≤ -4.2
12,A60G C93U U104G G143C,-3.09
13,G59U C76A G88A U104G,≤ -4.2
14,A60G C93G A147G,-4.1
15,U61C G81C C95G C123U A142G,≤ -4.2
16,U61A G83C U111C,≤ -4.2
17,A60C U77C C87A A98U U139A,≤ -4.2
18,A60G G71A C75A C93U C118G,≤ -4.2
19,U61A A64C G71A G86A A91C C93U C118G,≤ -4.2
20,G59U C93A C114U U127G A138U,≤ -4.2
21,U61A C116G G141U G143C,≤ -4.2
22,U61C G67A A89G G124U,≤ -4.2
23,U61A C85A C96G A110G,≤ -4.2
24,G59U G65A C114A C118U U134C U148A,≤ -4.2

row,Variant,polymerase ribozyme fitness (log ratio)
1,A60C C85A G124C,-2.54
2,A60G G67A U78G C96G A120U G140U A147G,≤ -4.2
3,G59U A107U U127A,≤ -4.2
4,U61A A97G G136A,-0.653
5,A60U C79U G81U A91G C95G U102A,≤ -4.2
6,G59U G86A C118G,-2.48
7,U61G G83A C103A,≤ -4.2
8,A60C G70C C99A A121U,≤ -4.2
9,A60U G67A C72U C87U,≤ -4.2
10,G59U A91U G126C G141C C149U,≤ -4.2
11,U61G A89U C95A C99A U109C G136A U148G C149A,≤ -4.2
12,G59U G81A C85G A106C,-3.51
13,A60G A107U,-3.1
14,G59U G67C G136A,≤ -4.2
15,G59C G92C G126A U130A,≤ -4.2
16,A60C A120U A137C G140U,≤ -4.2
17,U61G C116A,-0.386
18,U61A G84U A97U U145C,≤ -4.2
19,U61A G83C,-3.05
20,U61A G71A G83A A107U C116A,≤ -4.2
21,G59C G86C G143U,≤ -4.2
22,U61G C93G C99G C123G C125G,≤ -4.2
23,U61A C72G G84A,≤ -4.2
24,G62C C76A,≤ -4.2

row,Variant,polymerase ribozyme fitness (log ratio)
1,A60G C69A C76U C93U C99U A115U C116A,≤ -4.2
2,G62A C69A,≤ -4.2
3,U61A G86A A122G,-2.67
4,U61A A64U,≤ -4.2
5,U61G C87A C93U U104G A119G U139A U146A,≤ -4.2
6,U61A G143C,-2.62
7,A60C A119U C129A,≤ -4.2
8,U61A C108U,-3.86
9,G59U A73C U78G C87U A91U C118U A119U U130A,≤ -4.2
10,U61G G65C G74A U77G C93U A97C C99U,≤ -4.2
11,A60G G94A C103A G140C,≤ -4.2
12,U61A G71C U78G C85A G88A U111C G140U G152A,≤ -4.2
13,U61A A137C G140A,-4.19
14,G59U G80A,-0.046
15,U61A C87U U102C C103G U130C,≤ -4.2
16,A60G A91U A113G U151C,≤ -4.2
17,U61A A91U C108G A110U,≤ -4.2
18,A60G A107U C131G,≤ -4.2
19,A60C G65U C132A,-4.19
20,A60U G70A C85U G86A A107U U130C,≤ -4.2
21,U61G C72A C79U A98U U102G C118U A150G,≤ -4.2
22,A60G A66C C93U U145A,≤ -4.2
23,U61G C76A U78C G88C,≤ -4.2
24,A60G A64C C99G,≤ -4.2

row,Variant,polymerase ribozyme fitness (log ratio)
1,G62C C72A A91G A98G C123U,≤ -4.2
2,U61C A66U C85A C131U,≤ -4.2
3,G59U G67A G92U,-3.83
4,G59U U90C U101G U104C A142U,≤ -4.2
5,G59U C85G A119U G128A,-4.19
6,G59U C96U,-0.292
7,A60U G84U C95G,0.318
8,G62A C87U A120G A142C,-3.11
9,A60G C85A U101G,-2.94
10,A60G U61A A97G,-1.38
11,A60U C76A A120U,-1.94
12,A60U G67A A91G A137U,≤ -4.2
13,G59C G94C,-0.253
14,A60U A91G,≤ -4.2
15,U61A A89C A107U G117U U144G U151A,≤ -4.2
16,U61G C63A G68U A97U,≤ -4.2
17,G59U C69U G86A C95G A107U,≤ -4.2
18,A60C C93A A107G U127A,≤ -4.2
19,A60U G126U C129A U151G,≤ -4.2
20,A60U C79G C99G C105U,≤ -4.2
21,A60G C85A,-0.96
22,U61A G88A C132A,≤ -4.2
23,A60U A73G G92A C96G A115G U144G,≤ -4.2
24,A60C C69G G74A C95U C99G,≤ -4.2

row,Variant,polymerase ribozyme fitness (log ratio)
1,A60U A64C A89U C116G G133C A147C U148C,≤ -4.2
2,U61A C76A C87U,-3.68
3,A60G C87G A98U,≤ -4.2
4,U61G G83A A89U A107G A122G,≤ -4.2
5,U61C U82C C116U U134C,-2.24
6,A60C U61C G83A A89U C99U A106U A121G A122G,≤ -4.2
7,U61A C114U A142C,≤ -4.2
8,G62A C116U,-0.0465
9,U61C C76A C95U C96G U134G,≤ -4.2
10,A60U C93A,-3.06
11,G59C G68U C93G,≤ -4.2
12,A60G C69A G88A C95G U101A A106C A107G A119C U148A,≤ -4.2
13,A60G C96U U101G G128A,-3.75
14,G59C G83A C87A A137U G140U,≤ -4.2
15,U61A G80A A89C C93U A120U C132A U146A,≤ -4.2
16,G59U G68A C96U,≤ -4.2
17,A60U G92U A138U,≤ -4.2
18,U61A A66C C87U,≤ -4.2
19,G59U G94U C105U G124U G143C,-3.65
20,A60C C93A U104A A115C G133U,≤ -4.2
21,U61G C85G U101A U102G C103A U134C G143C,≤ -4.2
22,A60U C85G,-3.14
23,A60U C85A,-3.04
24,A60G C96U,0.674

row,Variant,polymerase ribozyme fitness (log ratio)
1,A60G C96G,-0.394
2,G62C C76A U82C A89C G94U C116A A120C A121G G143U,≤ -4.2
3,A60U G67A C125G G136C,≤ -4.2
4,U61A G140A,≤ -4.2
5,A60G C114U,-1.83
6,A60U G92A G140A,≤ -4.2
7,G59C G86C C96U A121U,-3.29
8,U61G U77A,≤ -4.2
9,A60G A73G C85A,-2.02
10,A60G G65C,≤ -4.2
11,U61A G65A A66C,≤ -4.2
12,A60C C72G C93A C95U,≤ -4.2
13,A60G G94A U102A C123G,-1.46
14,A60C G92U,-0.296
15,A60C C76U,-3.17
16,U61A A73G C93U C125A,-3.14
17,A60C C79U U102A C103A A142G,≤ -4.2
18,U61A G126C,-0.89
19,A60G G68U C76G G86U C99U,≤ -4.2
20,G59U G68A,≤ -4.2
21,G59C U109G,-0.84
22,A60C C93G C105G,≤ -4.2
23,U61C C149A,≤ -4.2
